# Data published in the supplement of paper PMC8728848.
# This is one part of the list.
# Experiments:
# Assay in all cases: glycan array binding signal (z-score within array); higher = stronger binding
# Conditions in all cases: glycan notation: IUPAC condensed, linker removed
# [1] = molecular target: Fuc(a1-3)[Gal(b1-4)]Glc6S
# Outline: (§1)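 From the Consortium for Functional Glycomics database, 3228 arrays were curated, keeping only those whose protein sequence was available. Binding is given as a within-array Z-score averaged across arrays sharing a protein sequence and across linkers. Negative Z-scores can be read as non-binding.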
# [2] = molecular target: Fuc(a1-3)[Gal(b1-4)]GlcNAc
# Outline: as §1
# [3] = molecular target: Fuc(a1-3)[Gal(b1-4)]GlcNAc(b1-2)Man
# Outline: as §1
# [4] = molecular target: Fuc(a1-3)[Gal(b1-4)]GlcNAc(b1-2)Man(a1-3)[Fuc(a1-3)[Gal(b1-4)]GlcNAc(b1-2)Man(a1-6)]Man(b1-4)GlcNAc(b1-4)GlcNAc
# Outline: as §1
# [5] = molecular target: Fuc(a1-3)[Gal(b1-4)]GlcNAc(b1-2)Man(a1-3)[Fuc(a1-3)[Gal(b1-4)]GlcNAc(b1-2)Man(a1-6)]Man(b1-4)GlcNAc(b1-4)[Fuc(a1-6)]GlcNAc
# Outline: as §1
# [6] = molecular target: Fuc(a1-3)[Gal(b1-4)]GlcNAc(b1-3)Gal(b1-3)[Fuc(a1-4)]GlcNAc
# Outline: as §1
# [7] = molecular target: Fuc(a1-3)[Gal(b1-4)]GlcNAc(b1-3)GalNAc
# Outline: as §1
# [8] = molecular target: Fuc(a1-3)[Gal(b1-4)]GlcNAc(b1-4)Gal(b1-4)[Fuc(a1-3)]GlcNAc
# Outline: as §1
# [9] = molecular target: Fuc(a1-3)[Gal(b1-4)]GlcNAc(b1-4)Gal(b1-4)[Fuc(a1-3)]GlcNAc(b1-4)Gal(b1-4)[Fuc(a1-3)]GlcNAc
# Outline: as §1
# [10] = molecular target: Fuc(a1-3)[Gal(b1-4)]GlcNAc(b1-6)GalNAc
# Outline: as §1
# [11] = molecular target: Fuc(a1-3)[Gal(b1-4)]GlcNAc(b1-6)[Gal(b1-3)GlcNAc(b1-3)]Gal(b1-4)Glc
# Outline: as §1
# [12] = molecular target: Fuc(a1-3)[Gal(b1-4)]GlcNAc6S
# Outline: as §1
# [13] = molecular target: Fuc(a1-3)[Gal3S(b1-4)]Glc
# Outline: as §1
# [14] = molecular target: Fuc(a1-3)[Gal3S(b1-4)]GlcNAc
# Outline: as §1
# [15] = molecular target: Fuc(a1-3)[Gal3S(b1-4)]GlcNAc6S
# Outline: as §1
# [16] = molecular target: Fuc(a1-3)[GalNAc(b1-4)]GlcNAc
# Outline: as §1
# [17] = molecular target: Fuc(a1-3)[GalNAc(b1-4)]GlcNAc6S
# Outline: as §1
# [18] = molecular target: Fuc(a1-4)GlcNAc
# Outline: as §1
# [19] = molecular target: Fuc(b1-3)GlcNAc
# Outline: as §1
# [20] = molecular target: Gal(a1-2)Gal
# Outline: as §1
# [21] = molecular target: Gal(a1-3)Gal
# Outline: as §1
# [22] = molecular target: Gal(a1-3)Gal(b1-3)GlcNAc
# Outline: as §1
# [23] = molecular target: Gal(a1-3)Gal(b1-3)GlcNAc(b1-2)Man
# Outline: as §1
# [24] = molecular target: Gal(a1-3)Gal(b1-3)GlcNAc(b1-2)Man(a1-3)[Gal(a1-3)Gal(b1-3)GlcNAc(b1-2)Man(a1-6)]Man(b1-4)GlcNAc(b1-4)GlcNAc
# Outline: as §1
# [25] = molecular target: Gal(a1-3)Gal(b1-3)GlcNAc(b1-3)GalNAc
# Outline: as §1
# [26] = molecular target: Gal(a1-3)Gal(b1-3)GlcNAc(b1-6)GalNAc
# Outline: as §1
# [27] = molecular target: Gal(a1-3)Gal(b1-3)[Fuc(a1-4)]GlcNAc(b1-2)Man(a1-3)[Gal(a1-3)Gal(b1-3)[Fuc(a1-4)]GlcNAc(b1-2)Man(a1-6)]Man(b1-4)GlcNAc(b1-4)GlcNAc
# Outline: as §1
# [28] = molecular target: Gal(a1-3)Gal(b1-4)Glc
# Outline: as §1
# [29] = molecular target: Gal(a1-3)Gal(b1-4)GlcNAc
# Outline: as §1
# [30] = molecular target: Gal(a1-3)Gal(b1-4)GlcNAc(b1-2)Man
# Outline: as §1
# [31] = molecular target: Gal(a1-3)Gal(b1-4)GlcNAc(b1-2)Man(a1-3)[Gal(a1-3)Gal(b1-4)GlcNAc(b1-2)Man(a1-6)]Man(b1-4)GlcNAc(b1-4)GlcNAc
# Outline: as §1
# [32] = molecular target: Gal(a1-3)Gal(b1-4)GlcNAc(b1-3)GalNAc
# Outline: as §1
# [33] = molecular target: Gal(a1-3)Gal(b1-4)GlcNAc(b1-6)GalNAc
# Outline: as §1
# [34] = molecular target: Gal(a1-3)Gal(b1-4)[Fuc(a1-3)]GlcNAc
# Outline: as §1
# [35] = molecular target: Gal(a1-3)Gal(b1-4)[Fuc(a1-3)]GlcNAc(b1-2)Man(a1-3)[Gal(a1-3)Gal(b1-4)[Fuc(a1-3)]GlcNAc(b1-2)Man(a1-6)]Man(b1-4)GlcNAc(b1-4)GlcNAc
# Outline: as §1
# [36] = molecular target: Gal(a1-3)GalNAc
# Outline: as §1
# [37] = molecular target: Gal(a1-3)[Gal(a1-4)]Gal(b1-4)GlcNAc
# Outline: as §1
# [38] = molecular target: Gal(a1-4)Gal(b1-3)GlcNAc(b1-2)Man(a1-3)[Gal(a1-4)Gal(b1-3)GlcNAc(b1-2)Man(a1-6)]Man(b1-4)GlcNAc(b1-4)GlcNAc
# Outline: as §1
# [39] = molecular target: Gal(a1-4)Gal(b1-4)Glc
# Outline: as §1
# [40] = molecular target: Gal(a1-4)Gal(b1-4)GlcNAc
# Outline: as §1
# [41] = molecular target: Gal(a1-4)Gal(b1-4)GlcNAc(b1-2)Man(a1-3)[Gal(a1-4)Gal(b1-4)GlcNAc(b1-2)Man(a1-6)]Man(b1-4)GlcNAc(b1-4)GlcNAc
# Outline: as §1
# [42] = molecular target: Gal(a1-4)Gal(b1-4)GlcNAc(b1-3)Gal(b1-4)Glc
# Outline: as §1
# [43] = molecular target: Gal(a1-4)GlcNAc
# Outline: as §1
# [44] = molecular target: Gal(a1-6)Glc
# Outline: as §1
# [45] = molecular target: Gal(b1-2)Gal
# Outline: as §1
# [46] = molecular target: Gal(b1-3)Gal
# Outline: as §1
# [47] = molecular target: Gal(b1-3)Gal(b1-4)GlcNAc
# Outline: as §1
# [48] = molecular target: Gal(b1-3)GalNAc
# Outline: as §1
# [49] = molecular target: Gal(b1-3)GalNAc(a1-3)[Fuc(a1-2)]Gal(b1-4)Glc
# Outline: as §1
# [50] = molecular target: Gal(b1-3)GalNAc(a1-3)[Fuc(a1-2)]Gal(b1-4)GlcNAc
# Outline: as §1
# [51] = molecular target: Gal(b1-3)GalNAc(b1-3)Gal
# Outline: as §1
# [52] = molecular target: Gal(b1-3)GalNAc(b1-3)Gal(a1-4)Gal(b1-4)Glc
# Outline: as §1
# [53] = molecular target: Gal(b1-3)GalNAc(b1-4)Gal(b1-4)Glc
# Outline: as §1
# [54] = molecular target: Gal(b1-3)GalNAc(b1-4)[Neu5Ac(a2-3)]Gal(b1-4)Glc
# Outline: as §1
# [55] = molecular target: Gal(b1-3)GlcNAc
# Outline: as §1
# [56] = molecular target: Gal(b1-3)GlcNAc(a1-3)Gal(b1-4)GlcNAc
# Outline: as §1
# [57] = molecular target: Gal(b1-3)GlcNAc(a1-6)Gal(b1-4)GlcNAc
# Outline: as §1
# [58] = molecular target: Gal(b1-3)GlcNAc(b1-2)Man
# Outline: as §1
# [59] = molecular target: Gal(b1-3)GlcNAc(b1-2)Man(a1-3)[Gal(b1-3)GlcNAc(b1-2)Man(a1-6)]Man(b1-4)GlcNAc(b1-4)GlcNAc
# Outline: as §1
# [60] = molecular target: Gal(b1-3)GlcNAc(b1-2)Man(a1-3)[Gal(b1-3)GlcNAc(b1-2)Man(a1-6)]Man(b1-4)GlcNAc(b1-4)[Fuc(a1-6)]GlcNAc
# Outline: as §1
binder,measurement,setting,value
Pbx2 (Cryptococcus neoformans) (protein) AVSPLPSSTELVFYSQKRRRRRICSTATGSLSTPDPTRMTSDPYKRVGMRFSSVPRLLITFLSLLLLVSAAPPCVRFADYDSINQMFIDGGPGTKVLLCPNRLYRLSGPIIFTAADQEIATYGYPTGSERAVLRVEGRNTATAIQGDCRRCARVSVKNLVVDGNRKKLGRMRDFQLATGLVVLGGNEGQSIQNSWIKNPRGFTAIHIREGDKLQCSGARVEKNEIGPVGEEYDPEKDGDDPEMSPLGRPLADGVSIACRDSFIRDNTFRDNTDAAIVVYCSPGTLIHANHIFAQSLSAMAGILMVDSTPFNGDYTGTVVRSNIIDAVSRTIRVGIGIGPTVWSDDTETILTGGSVIGNGLKGRYMGYGIAAAGLKQWTIKDNWDEAKHEGRKSARCFDEPVNPDPIGLLYNRPTMEDCTVQSGFADHDFQYLVCIDGLYDKTNPPKHDPAPLAHDPSPTNAQEDNTVQQDGGDSKSKSIEQPREASDIEAEPSVEKMFSTGSEMMDDVLEHSHQRMHEVIDHLSRRIDILGAASAGKGSGDSKISEVLDPAMSSHLEKLQRKIEHLEFSLRSQIETAIQLRSAIQGWDQEMALVTDWEYDILLDVRHKLELSSYPHDQPLDPRLMRGQSYLNNEAVLVDDHSHPSLEGENLRAMSDRARLNANEEA,glycan array binding signal (z-score),[1],-0.285
same,glycan array binding signal (z-score),[2],-0.094
same,glycan array binding signal (z-score),[3],-0.041
same,glycan array binding signal (z-score),[4],0.271
same,glycan array binding signal (z-score),[5],-0.34
same,glycan array binding signal (z-score),[6],-0.184
same,glycan array binding signal (z-score),[7],0.013
same,glycan array binding signal (z-score),[8],-0.139
same,glycan array binding signal (z-score),[9],-0.366
same,glycan array binding signal (z-score),[10],0.137
same,glycan array binding signal (z-score),[11],-0.361
same,glycan array binding signal (z-score),[12],-0.641
same,glycan array binding signal (z-score),[13],-0.224
same,glycan array binding signal (z-score),[14],0.057
same,glycan array binding signal (z-score),[15],0.679
same,glycan array binding signal (z-score),[16],-0.291
same,glycan array binding signal (z-score),[17],-0.186
same,glycan array binding signal (z-score),[18],-0.284
same,glycan array binding signal (z-score),[19],-0.524
same,glycan array binding signal (z-score),[20],-0.104
same,glycan array binding signal (z-score),[21],0.196
same,glycan array binding signal (z-score),[22],-0.038
same,glycan array binding signal (z-score),[23],-0.335
same,glycan array binding signal (z-score),[24],0.261
same,glycan array binding signal (z-score),[25],0.123
same,glycan array binding signal (z-score),[26],0.063
same,glycan array binding signal (z-score),[27],-0.392
same,glycan array binding signal (z-score),[28],0.082
same,glycan array binding signal (z-score),[29],-0.346
same,glycan array binding signal (z-score),[30],-0.054
same,glycan array binding signal (z-score),[31],-0.103
same,glycan array binding signal (z-score),[32],-0.139
same,glycan array binding signal (z-score),[33],-0.214
same,glycan array binding signal (z-score),[34],-0.312
same,glycan array binding signal (z-score),[35],0.644
same,glycan array binding signal (z-score),[36],-0.393
same,glycan array binding signal (z-score),[37],-0.508
same,glycan array binding signal (z-score),[38],-0.393
same,glycan array binding signal (z-score),[39],-0.416
same,glycan array binding signal (z-score),[40],-0.36
same,glycan array binding signal (z-score),[41],-0.277
same,glycan array binding signal (z-score),[42],0.145
same,glycan array binding signal (z-score),[43],-0.389
same,glycan array binding signal (z-score),[44],-0.024
same,glycan array binding signal (z-score),[45],-0.244
same,glycan array binding signal (z-score),[46],-0.563
same,glycan array binding signal (z-score),[47],-0.32
same,glycan array binding signal (z-score),[48],0.101
same,glycan array binding signal (z-score),[49],0.111
same,glycan array binding signal (z-score),[50],-0.239
same,glycan array binding signal (z-score),[51],-0.666
same,glycan array binding signal (z-score),[52],-0.417
same,glycan array binding signal (z-score),[53],-0.512
same,glycan array binding signal (z-score),[54],-0.669
same,glycan array binding signal (z-score),[55],-0.084
same,glycan array binding signal (z-score),[56],0.152
same,glycan array binding signal (z-score),[57],-0.5
same,glycan array binding signal (z-score),[58],0.185
same,glycan array binding signal (z-score),[59],-0.34
same,glycan array binding signal (z-score),[60],-0.493
